# According to the supplement of paper PMC10126150:
# Sequences with one replicate were seen in a single cluster, so their values are uncertain.
# Test system: ATP
# Assay: switch fluorescence ratio, 500 uM ATP over buffer (Cy3 cluster intensity, sum of 5 cycles each) (fold (ratio)); higher = stronger signal-on switching upon ATP binding; sequences stand for … in TCGTCGGCAGCGTCAGATGTGTATAAGAGACAGTTTTTTTTTTTTTTTTTTTTTTTTT…TC
# Conditions: aptamer strand: ATP DNA aptamer (quencher-CACCTGGGGGAGTATTGCGGAGGAAGG + anchor), 100 nM annealed; ATP concentration: 500 uM; one replicate
# Outline: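 Switching-strand clusters labelled with Cy3 on a modified Illumina MiSeq flow-cell were annealed to 100 nM quencher-labelled ATP aptamer, imaged in selection buffer, and re-imaged after 15 min with 500 uM ATP at 22 °C. This was done over five cycles with NaOH stripping and re-annealing in between. The fluorescence ratio is summed target-cycle over summed buffer-cycle Cy3 intensity per cluster, averaged per switch-domain sequence, excluding clusters outside 100-1000 RFU.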
# 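Further: ATP exposure 15 min at 22 °C before imaging.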
row,Sequence,switch fluorescence ratio
1,TTAAGGTTTC,0.984
2,GTTACGTATA,1.15
3,ATATTTCTAC,1.04
4,GATCGATGCA,1.05
5,AATAACCTA,1.07
6,AGCCGGTTGC,1.04
7,TCTTGAGGAT,1
8,GCCGGAAATA,1.09
9,AGTTTACTTG,1.01
10,GAAGTTAACA,0.985
11,ATTTTCAGTG,0.994
12,AGAACGTTCA,1.03
13,TAGCCTCATG,0.972
14,CGCGTTACAC,1.48
15,AGTTATGTCG,1.16
16,CTCTTCTGCA,1.06
17,GGCCGGGCGC,1.01
18,AGTTACTTAA,1.06
19,CCTTGGGCGC,0.973
20,CGAATCAGG,1.08
21,TTCGATGAGT,0.964
22,AGTTATGCGG,0.946
23,TACATAGCGA,1.32
24,TACGAAGAT,1.03
25,GGATGAGGTC,1
26,TAGGTTCTA,0.992

row,Sequence,switch fluorescence ratio
1,TCCAAAATG,1.01
2,CTGGGTTTA,1.06
3,AGGGATCAGG,0.972
4,TGCTATGCCG,1.05
5,AGACCTCGCT,1.06
6,TCAAGGTGAC,1.1
7,TGCGCGGATT,0.971
8,ATAGGCAAAA,1.02
9,GCGGAATTTT,0.994
10,GGGTTTCCT,1.04
11,GTGTGAACAA,0.999
12,CCAGGGCGGT,1.09
13,TTTTGTTGCC,1.09
14,AATGCACCTT,1.14
15,TCAAAGTACT,1.12
16,ATTGCGACTA,0.979
17,GATAGTTTAA,1.01
18,ACCATTACTT,1.22
19,TAACTTCCTC,2.44
20,AGTCCATCGT,1.06
21,GTAGTCTTAC,1.07
22,CATGGAGGGC,0.97
23,GGGTTGCTA,1.04
24,ATTAGTTTTA,0.946
25,ACACGGCTGG,1.02
26,ACACGTGCC,1.02

row,Sequence,switch fluorescence ratio
1,CGTGGAGCAC,1.15
2,CGGCCCGCAC,4.64
3,ATGGTGTTGA,0.987
4,AACATGATAG,1
5,ACGCTTTAAT,1.05
6,GCAACGTGTT,1.02
7,GCAGCGAGAG,2.31
8,GCATGCATGA,0.998
9,CGACCATG,0.96
10,GGATTCCGTC,1.04
11,CTGAACCCGT,0.991
12,TTACTAGGGC,0.941
13,TGCTAGACCA,0.98
14,TAACTCTCGT,1.06
15,CCAAGAAGGG,1.01
16,TGGAAGGCGG,1.07
17,TCGGAGAGGT,0.978
18,CTACTGACGT,1.31
19,TCATGGAAAC,1.07
20,CAGTCCAGT,0.953
21,CAGCTATCGT,0.99
22,TAGCAAATGG,1.07
23,TTTCGCGGG,1.15
24,TAGACTGGGT,0.981
25,CAGCTTAGGC,0.985
26,GATTACCTAG,1.05

row,Sequence,switch fluorescence ratio
1,CGTCTCTAAA,1.02
2,GGGAGCGACA,0.959
3,GGGGGTCCCC,1.03
4,TTTCGATTTC,0.973
5,ATCCACTCCC,1.6
6,GTTCTCGCCG,0.987
7,TTGCTATGCT,1.04
8,TTATAATGCG,0.98
9,GCACCGTAGG,1.03
10,AACGCATCGT,0.985
11,TGCAGGGTAT,1.18
12,TTTAGGTGAC,0.985
13,AAGTCGAGAA,1.01
14,GTTTTTCAAC,0.956
15,GCGAAAGCCT,1.04
16,GTGAGGTCGA,0.953
17,TAGGTGGATG,1.03
18,GAAGGTCAGC,1.02
19,GACTCGGAAA,1.42
20,GAGGGACCGA,1.03
21,AGACAGGCGT,0.944
22,TGTTTACGC,1.02
23,GTTTCCTGAT,0.971
24,CCATTCGTGG,0.974
25,TGCGCTCGGG,1.05
26,GGCTCCTCAG,1.07

row,Sequence,switch fluorescence ratio
1,GAGGAAAAAA,0.975
2,GCTGGTAGAC,1.01
3,GTCTAGACCA,1.01
4,CGGGTCCCTT,1.03
5,CTGGGCACGG,0.996
6,AGAGCGTCCT,1.03
7,ACCACCTTCT,1.5
8,CGTGTGCAGT,1.05
9,GGACTAATTG,1.05
10,CCAATTTGGC,1
11,CTCAGTAT,0.995
12,GGAACTACCG,1.02
13,TTTCGCCCGG,1.02
14,GGAGTTCATT,0.98
15,TTTATTGTTG,1
16,CGGAGATGAT,1.02
17,ATGTAAGTAA,1
18,ATTGATGGTG,0.952
19,AACCTCTCAC,1.22
20,TAACACTATA,1.02
21,GACCAAACAT,1.26
22,TCTCATTGT,0.984
23,TAGGAGTGG,0.959
24,CTTGTGGAG,1
25,CCGTCAACCA,1.26
26,TTAGATTCGC,1.02

row,Sequence,switch fluorescence ratio
1,AATTATTAGC,1.02
2,GATAGCAAGC,2.35
3,AAAAGAAAG,0.951
4,AATGCAATCA,0.998
5,AGTTCGTCTC,1.04
6,ACACCCAATT,1.15
7,GGTACCCGTC,0.976
8,GATATATCG,1
9,TTCAGGC,1.02
10,TGCAAGCCTT,1.1
11,GGATGGGTAG,0.961
12,GTGGCCATTG,0.963
13,GTGTCGGAGC,1.06
14,CAAGTTATTT,0.945
15,TTGTTTGG,1
16,GAGCTATGGA,0.993
17,GGTATTGACT,1.02
18,CTAGGGAAAT,1.04
19,GGCGTTCAAT,1.01
20,GACGAAACAT,1.21
21,CAGGCAAATT,1.33
22,AATCAGGATA,1.02
23,GAGAAGCAAT,1
24,CATATCGACG,1.04
25,TTTGCCAACG,0.964
26,AGAAAACTTA,1.05

row,Sequence,switch fluorescence ratio
1,GCGAAATATT,0.981
2,GCCGAAGTGG,1
3,TTCCGAATGC,2.81
4,ACCACCCCGG,1.05
5,TTTACACGGA,0.997
6,AACGGCCCTC,1.07
7,ACGTGGTCA,0.992
8,TCATACTGAC,1.31
9,GACAATCACT,1.14
10,GACTATCTTG,1.01
11,TTTGATGA,1.04
12,GCCGGTCACG,0.992
13,CCACGGATGG,0.973
14,GGGTTGAGAC,1.05
15,GGTTCGTTC,0.99
16,ACATTACTTT,1.21
17,GTTTGTGATC,0.975
18,GAGTTGAATA,1.01
19,TACATTCAAT,1.05
20,CGGATACCTC,1.13
21,TTCTTCCGTC,1.37
22,TCATGTGCGT,1.01
23,TAGCAGCGG,1.03
24,TAGATATCGT,1.04
25,TAAGAACAA,1.15
26,GCAATTAG,1.52

row,Sequence,switch fluorescence ratio
1,CTGAGCAGC,0.994
2,GATTTCTTAG,0.98
3,TTCTCGCCGT,0.954
4,AAGAGAGAAA,0.998
5,AGCTTTATT,1.01
6,ATCCTTGGGG,1
7,GCTTTTTCAG,0.981
8,TAACAAGGCG,1.05
9,GACGAAAATT,1.11
10,GTGAGCTGCG,0.893
11,CCGTCCCCGG,3.03
12,GCGCCGGTCC,1.09
13,ATGAGGACGA,1.18
14,GCCCATTGAT,1.01
15,CAATGGCCAA,1.01
16,TTGCGTCGTG,1.01
17,TTGGCATCGT,0.993
18,AATGTTTGGA,1.01
19,GGTATTTAAT,1.03
